No constants are given. Whether binding was seen depends on the method and setting. In cells and extracts the contact can be indirect. Some binding calls cover weakened binding; strength is not graded here. Blank lines part the entries; values can stand above or below the molecule they belong to.
How the values were obtained:
[1] = target: interleukin-1 receptor-associated kinase 1 (IRAK1), endogenous (human (endogenous in PaTu8988, 293T, SW1990)) (UniProt P51617); assay: co-IP; PaTu8988 cell lysates (IP lysis buffer with PMSF and phosphatase inhibitor), primary antibody and protein A/G agarose beads at 4°C overnight, five washes, Western blot; endogenous proteins or indicated plasmids; treatments in some panels: LPS, λ-phosphatase, BAP1 knock-out and rescue, IRAK4 siRNA or overexpression
Flag-IRAK1 (WT) = Flag-IRAK1 (WT) (UniProt P51617); assay: as above
[2] = target: BRCA1 Associated Protein-1 (BAP1), endogenous (human (endogenous in PaTu8988)) (UniProt Q92560); assay: as above
HA tagged BAP1 (human) = HA tagged BAP1 (human) (UniProt Q92560); assay: as above
[3] = target: BRCA1 Associated Protein-1 (BAP1), endogenous (human (endogenous in PaTu8988)) (UniProt Q92560); assay: co-IP; PaTu8988 cells, nuclear-cytoplasmic separation (extraction kit), then co-IP of BAP1 from the extracts
[4] = target: interleukin-1 receptor-associated kinase 1 (IRAK1), endogenous (human (endogenous in PaTu8988, 293T, SW1990)) (UniProt P51617); assay: co-IP; SW1990 cells with overexpression of BAP1, co-IP of IRAK1, Western blot

Chains of the proteins cited; added tags and fusions are not shown. Lines headed by an entry give the natural chain unless they say otherwise; changes in a name come on top.
UniProt P51617: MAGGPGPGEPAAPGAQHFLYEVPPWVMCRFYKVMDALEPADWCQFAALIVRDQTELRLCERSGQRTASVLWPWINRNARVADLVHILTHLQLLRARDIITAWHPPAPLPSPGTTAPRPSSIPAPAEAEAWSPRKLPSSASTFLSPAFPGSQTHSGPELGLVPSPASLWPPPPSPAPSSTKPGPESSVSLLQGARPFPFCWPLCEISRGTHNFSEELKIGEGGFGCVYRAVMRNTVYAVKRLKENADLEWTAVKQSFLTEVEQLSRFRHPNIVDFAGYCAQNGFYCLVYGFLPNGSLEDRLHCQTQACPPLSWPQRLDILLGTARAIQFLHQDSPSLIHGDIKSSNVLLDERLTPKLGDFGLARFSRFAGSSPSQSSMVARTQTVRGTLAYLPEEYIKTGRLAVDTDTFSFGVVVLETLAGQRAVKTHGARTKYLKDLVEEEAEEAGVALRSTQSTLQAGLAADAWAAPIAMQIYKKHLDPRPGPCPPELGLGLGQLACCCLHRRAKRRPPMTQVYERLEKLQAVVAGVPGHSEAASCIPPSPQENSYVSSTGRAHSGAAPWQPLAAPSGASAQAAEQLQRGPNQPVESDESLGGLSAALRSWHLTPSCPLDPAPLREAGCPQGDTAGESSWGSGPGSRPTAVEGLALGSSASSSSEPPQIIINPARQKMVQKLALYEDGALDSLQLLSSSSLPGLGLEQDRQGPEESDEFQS
UniProt Q92560: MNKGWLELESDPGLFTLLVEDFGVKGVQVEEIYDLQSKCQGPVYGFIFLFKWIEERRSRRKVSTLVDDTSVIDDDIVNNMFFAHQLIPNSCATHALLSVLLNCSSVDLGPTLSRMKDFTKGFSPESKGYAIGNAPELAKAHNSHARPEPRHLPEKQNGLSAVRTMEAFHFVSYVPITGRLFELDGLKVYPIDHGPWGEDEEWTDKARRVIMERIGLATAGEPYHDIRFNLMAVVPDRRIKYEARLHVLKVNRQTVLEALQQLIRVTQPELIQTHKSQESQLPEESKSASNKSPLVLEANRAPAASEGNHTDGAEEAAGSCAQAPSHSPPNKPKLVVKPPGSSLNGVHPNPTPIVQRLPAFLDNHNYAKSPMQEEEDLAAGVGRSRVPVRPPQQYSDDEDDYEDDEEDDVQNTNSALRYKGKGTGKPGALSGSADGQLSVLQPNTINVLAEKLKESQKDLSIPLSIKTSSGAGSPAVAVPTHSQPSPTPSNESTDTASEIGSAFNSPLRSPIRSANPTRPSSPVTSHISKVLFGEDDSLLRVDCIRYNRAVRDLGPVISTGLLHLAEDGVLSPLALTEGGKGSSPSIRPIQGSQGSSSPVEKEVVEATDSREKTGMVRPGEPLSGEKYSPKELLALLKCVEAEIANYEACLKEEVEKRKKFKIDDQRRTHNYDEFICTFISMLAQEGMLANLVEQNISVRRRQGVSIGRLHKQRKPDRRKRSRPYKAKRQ
UniProt Q99836: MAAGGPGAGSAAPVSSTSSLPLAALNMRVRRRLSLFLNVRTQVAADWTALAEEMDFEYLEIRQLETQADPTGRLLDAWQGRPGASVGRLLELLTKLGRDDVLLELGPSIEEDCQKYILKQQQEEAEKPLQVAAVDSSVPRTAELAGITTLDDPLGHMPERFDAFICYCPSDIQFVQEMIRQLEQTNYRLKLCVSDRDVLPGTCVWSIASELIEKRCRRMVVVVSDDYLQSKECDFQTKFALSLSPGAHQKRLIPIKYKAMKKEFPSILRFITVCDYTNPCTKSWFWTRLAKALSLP
UniProt Q76L83: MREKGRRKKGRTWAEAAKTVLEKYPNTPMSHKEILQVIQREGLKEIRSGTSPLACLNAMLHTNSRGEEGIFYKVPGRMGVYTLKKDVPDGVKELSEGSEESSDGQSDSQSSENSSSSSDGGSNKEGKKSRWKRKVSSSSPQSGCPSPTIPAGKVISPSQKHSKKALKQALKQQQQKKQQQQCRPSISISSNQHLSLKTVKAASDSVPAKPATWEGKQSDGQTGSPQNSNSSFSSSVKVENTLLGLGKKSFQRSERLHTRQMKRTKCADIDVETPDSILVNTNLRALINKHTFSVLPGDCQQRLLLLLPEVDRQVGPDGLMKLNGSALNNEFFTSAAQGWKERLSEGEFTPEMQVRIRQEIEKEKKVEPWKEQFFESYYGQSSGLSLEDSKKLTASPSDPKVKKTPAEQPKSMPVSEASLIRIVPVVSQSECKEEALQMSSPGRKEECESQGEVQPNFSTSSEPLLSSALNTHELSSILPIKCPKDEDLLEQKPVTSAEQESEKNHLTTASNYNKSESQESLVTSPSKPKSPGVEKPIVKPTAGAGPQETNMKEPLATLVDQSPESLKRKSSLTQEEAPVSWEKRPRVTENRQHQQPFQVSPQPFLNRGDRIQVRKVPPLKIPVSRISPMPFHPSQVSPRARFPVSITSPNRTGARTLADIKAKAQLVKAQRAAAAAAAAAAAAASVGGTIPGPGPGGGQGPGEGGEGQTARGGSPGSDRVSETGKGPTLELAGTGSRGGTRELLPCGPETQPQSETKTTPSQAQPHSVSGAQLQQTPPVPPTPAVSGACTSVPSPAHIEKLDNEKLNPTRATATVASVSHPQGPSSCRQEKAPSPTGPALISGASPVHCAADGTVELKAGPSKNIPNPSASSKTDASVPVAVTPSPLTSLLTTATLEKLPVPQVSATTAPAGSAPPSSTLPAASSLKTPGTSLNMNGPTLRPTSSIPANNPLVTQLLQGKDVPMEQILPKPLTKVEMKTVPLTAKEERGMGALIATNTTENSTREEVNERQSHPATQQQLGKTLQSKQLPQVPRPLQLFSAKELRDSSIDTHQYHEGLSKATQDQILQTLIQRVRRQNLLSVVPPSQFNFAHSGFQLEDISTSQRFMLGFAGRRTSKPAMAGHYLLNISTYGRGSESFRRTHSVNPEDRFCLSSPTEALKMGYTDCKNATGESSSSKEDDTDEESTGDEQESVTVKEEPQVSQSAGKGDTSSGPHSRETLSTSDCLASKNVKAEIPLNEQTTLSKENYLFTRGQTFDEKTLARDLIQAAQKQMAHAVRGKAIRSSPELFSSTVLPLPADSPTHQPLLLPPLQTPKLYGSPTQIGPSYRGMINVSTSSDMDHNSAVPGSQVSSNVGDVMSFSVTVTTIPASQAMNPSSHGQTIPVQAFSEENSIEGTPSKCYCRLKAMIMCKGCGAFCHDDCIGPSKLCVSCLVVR
UniProt Q9C0F0: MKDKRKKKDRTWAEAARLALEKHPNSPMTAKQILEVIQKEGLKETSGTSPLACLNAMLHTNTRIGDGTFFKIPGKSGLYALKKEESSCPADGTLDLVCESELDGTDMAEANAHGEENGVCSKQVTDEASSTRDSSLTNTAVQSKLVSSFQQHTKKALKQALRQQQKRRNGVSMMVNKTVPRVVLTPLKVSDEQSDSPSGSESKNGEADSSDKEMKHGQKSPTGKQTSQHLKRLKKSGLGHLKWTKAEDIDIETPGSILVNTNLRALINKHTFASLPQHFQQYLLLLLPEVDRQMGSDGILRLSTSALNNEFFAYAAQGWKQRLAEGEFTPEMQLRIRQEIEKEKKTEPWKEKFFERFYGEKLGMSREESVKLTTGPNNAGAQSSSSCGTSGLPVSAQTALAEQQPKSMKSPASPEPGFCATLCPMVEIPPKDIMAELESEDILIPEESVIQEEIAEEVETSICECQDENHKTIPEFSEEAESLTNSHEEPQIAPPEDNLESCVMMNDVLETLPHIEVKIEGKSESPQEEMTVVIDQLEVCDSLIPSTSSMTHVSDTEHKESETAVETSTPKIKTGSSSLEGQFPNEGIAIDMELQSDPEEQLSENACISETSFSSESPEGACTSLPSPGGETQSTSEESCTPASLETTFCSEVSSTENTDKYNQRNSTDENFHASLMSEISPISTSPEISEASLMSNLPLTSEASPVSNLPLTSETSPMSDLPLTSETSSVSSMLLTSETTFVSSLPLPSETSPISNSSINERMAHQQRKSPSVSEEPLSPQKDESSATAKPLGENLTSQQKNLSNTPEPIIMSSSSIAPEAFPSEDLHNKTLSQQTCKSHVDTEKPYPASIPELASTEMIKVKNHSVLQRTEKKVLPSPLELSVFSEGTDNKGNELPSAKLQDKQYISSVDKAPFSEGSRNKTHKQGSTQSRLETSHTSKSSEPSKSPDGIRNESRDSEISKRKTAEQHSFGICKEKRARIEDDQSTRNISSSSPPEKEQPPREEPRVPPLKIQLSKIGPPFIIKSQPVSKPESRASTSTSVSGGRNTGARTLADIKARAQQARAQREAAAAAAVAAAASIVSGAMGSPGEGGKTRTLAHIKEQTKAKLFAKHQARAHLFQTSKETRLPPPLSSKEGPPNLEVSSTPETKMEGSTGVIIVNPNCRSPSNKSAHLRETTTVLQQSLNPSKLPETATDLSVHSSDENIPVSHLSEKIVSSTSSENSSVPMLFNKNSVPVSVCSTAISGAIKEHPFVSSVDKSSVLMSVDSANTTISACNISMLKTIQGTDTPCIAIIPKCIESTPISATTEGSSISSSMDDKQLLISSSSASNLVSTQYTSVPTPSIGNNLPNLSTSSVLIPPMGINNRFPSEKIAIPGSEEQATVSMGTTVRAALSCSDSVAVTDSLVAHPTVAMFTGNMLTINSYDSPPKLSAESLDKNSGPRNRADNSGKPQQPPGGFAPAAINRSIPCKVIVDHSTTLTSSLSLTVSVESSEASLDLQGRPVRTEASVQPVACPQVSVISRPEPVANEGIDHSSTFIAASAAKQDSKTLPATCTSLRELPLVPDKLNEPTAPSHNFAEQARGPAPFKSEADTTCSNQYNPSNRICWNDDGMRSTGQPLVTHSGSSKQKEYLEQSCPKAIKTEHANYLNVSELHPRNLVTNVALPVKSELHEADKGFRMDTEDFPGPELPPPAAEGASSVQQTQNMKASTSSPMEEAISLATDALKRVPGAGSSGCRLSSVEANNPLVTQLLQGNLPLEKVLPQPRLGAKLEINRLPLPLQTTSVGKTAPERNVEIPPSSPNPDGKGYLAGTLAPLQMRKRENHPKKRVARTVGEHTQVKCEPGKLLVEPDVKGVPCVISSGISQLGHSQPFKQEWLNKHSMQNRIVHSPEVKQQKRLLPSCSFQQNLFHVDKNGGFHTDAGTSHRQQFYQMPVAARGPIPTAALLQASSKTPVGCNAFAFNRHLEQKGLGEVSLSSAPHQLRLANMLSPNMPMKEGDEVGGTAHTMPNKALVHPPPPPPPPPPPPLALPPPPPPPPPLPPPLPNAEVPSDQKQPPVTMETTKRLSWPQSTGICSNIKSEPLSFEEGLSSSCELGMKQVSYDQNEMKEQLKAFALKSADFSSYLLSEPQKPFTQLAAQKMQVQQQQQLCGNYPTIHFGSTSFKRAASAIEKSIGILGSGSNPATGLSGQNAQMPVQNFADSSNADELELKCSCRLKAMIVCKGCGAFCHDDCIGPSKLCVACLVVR

Molecule: interleukin-1 receptor-associated kinase 1 (IRAK1), endogenous (from UniProt P51617 1-712)
binding [2]: binds
binding (HA tagged BAP1 (human)): binds
binding [3]: binds

Molecule: MyD88, endogenous (from UniProt Q99836 1-296)
binding (HA tagged BAP1 (human)): no binding
binding [1]: binds
binding [4]: binds

Molecule: BRCA1 Associated Protein-1 (BAP1), endogenous (from UniProt Q92560 1-729)
binding (Flag-IRAK1 (WT)): binds
binding [1]: binds

Molecule: C91A mutated BAP1 (enzymatically inactive) (from UniProt Q92560 1-729)
binding [1]: binds

More lines, now with the values ahead:

binding [1]: binds
Molecule: wild-type (WT) BAP1, expressed from a plasmid (from UniProt Q92560 1-729)

binding (Flag-IRAK1 (WT)): no binding
Molecule: ASXL2 (from UniProt Q76L83 1-1435)

binding (Flag-IRAK1 (WT)): no binding
Molecule: ASXL3 (from UniProt Q9C0F0 1-2248)

binding (HA tagged BAP1 (human)): no binding
binding [1]: binds
binding [4]: binds
B1: IRAK4, endogenous (protein, UniProt Q9NWZ3 1-460)
chain: MNKPITPSTYVRCLNVGLIRKLSDFIDPQEGWKKLAVAIKKPSGDDRYNQFHIRRFEALLQTGKSPTSELLFDWGTTNCTVGDLVDLLIQNEFFAPASLLLPDAVPKTANTLPSKEAITVQQKQMPFCDKDRTLMTPVQNLEQSYMPPDSSSPENKSLEVSDTRFHSFSFYELKNVTNNFDERPISVGGNKMGEGGFGVVYKGYVNNTTVAVKKLAAMVDITTEELKQQFDQEIKVMAKCQHENLVELLGFSSDGDDLCLVYVYMPNGSLLDRLSCLDGTPPLSWHMRCKIAQGAANGINFLHENHHIHRDIKSANILLDEAFTAKISDFGLARASEKFAQTVMTSRIVGTTAYMAPEALRGEITPKSDIYSFGVVLLEIITGLPAVDEHREPQLLLDIKEEIEDEEKTIEDYIDKKMNDADSTSVEAMYSVASQCLHEKKNKRPDIKKVQQLLQEMTAS
